± gives the standard deviation of the averaged measurements. This is one part of the list.
tested on: PfAP2-EXP AP2 domain (GST-tagged); test: gcPBM binding intensity (ln(normalized median fluorescence intensity)); higher = stronger DNA binding
Outline: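 In this array assay, P. falciparum DNA-binding domains with a GST tag, expressed in E. coli, were applied for 1 h to primer-extended double-stranded 36-bp intergenic genomic probes and negative controls on an Agilent 4 × 180k array. Bound protein was visualised with Alexa488 anti-GST antibody at 488 nm. Binding intensity is the highest Masliner-normalised natural-log median intensity across replicate spots of either probe orientation.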

Q: How did the “gcPBM binding intensity (ln)” value turn out when “TAATGGAGAAAAAAAAAACACACGGTACATTCAAAG [CACACA_site3117]” was run?
A: 8.82 ± 0.49

Q: “TATATATATATATATTGTACTTTATATGTTCTTATA [XGTACX_site7545]” was tested. Which “gcPBM binding intensity (ln)” value did it give?
A: 10.3 ± 0.11

Q: Which “gcPBM binding intensity (ln)” value does the source give for “TTTTATAAAGGAAAAGCATGCAGACTAAAAGATCAT [TGCATGCA_site150]” here?
A: 9.81 ± 0.4

Q: For “AAATATTACATTTGTTAAATAATATGTTATACATAA [XGTACX_negctrl_site484]”, which “gcPBM binding intensity (ln)” value is on record?
A: 8.01 ± 0.39

Q: Which “gcPBM binding intensity (ln)” value does the source give for “ACAAATAAGTTTTATACACACATATAAGTAAATACA [CACACA_site4157]” here?
A: 8.57 ± 0.29

Q: For “GAGAGGAACATTATATGTACATATTAATTCTAAAAT [XGTACX_site5433]”, which “gcPBM binding intensity (ln)” value is on record?
A: 8.52 ± 0.4

Q: Which “gcPBM binding intensity (ln)” value does the source give for “TATAGTGATATATACACACACTTGTCTTGTAAAAAT [CACACA_site6594]” here?
A: 8.46 ± 0.35

Q: Which “gcPBM binding intensity (ln)” value does the source give for “ACAATATTTTTTTATAAACACACATATATATAAATA [CACACA_site9175]” here?
A: 8.41 ± 0.44

Q: “TGTATAAAAATTTATACACACATTTTATATATTTCA [CACACA_site1015]” was tested. Which “gcPBM binding intensity (ln)” value did it give?
A: 8.19 ± 0.4

Q: “TATTAATTATTATGACATACATATCAGTTATTAAAA [CACACA_negctrl_site600]” was tested. Which “gcPBM binding intensity (ln)” value did it give?
A: 8.23 ± 0.52

Q: For “TAATCCATAAGAAGCACACACATATATATATATTTT [CACACA_site1399]”, which “gcPBM binding intensity (ln)” value is on record?
A: 8.54 ± 0.53

Q: Which “gcPBM binding intensity (ln)” value does the source give for “ATTTTGTTATTATATATATATATATATATATATATA [XGTACX_negctrl_site590]” here?
A: 10.3 ± 0.57

Q: With ATATATATATATATAGTGCACATTTATATAATTATT as the sequence, how does the “gcPBM binding intensity (ln)” value read?
A: 10.3 ± 0.17

Q: With “AAATTTATAAAGAACACACACATATATATATATATA [CACACA_site48]” as the sequence, how does the “gcPBM binding intensity (ln)” value read?
A: 10.2 ± 0.27

Q: With “CAAAACCTAATATGTACACACATATACATCACACTT [CACACA_site7480]” as the sequence, how does the “gcPBM binding intensity (ln)” value read?
A: 8.57 ± 0.32

Q: How did the “gcPBM binding intensity (ln)” value turn out when “TTTCTTTCGAATGCTTCACACATTACTCTTAAATAG [CACACA_site5265]” was run?
A: 8.82 ± 0.47

Q: “AAATGTGAACTATAATAATTTCAACGTCTGATATAA [TGCATGCA_negctrl_site440]” was tested. Which “gcPBM binding intensity (ln)” value did it give?
A: 8.27 ± 0.51

Q: Which “gcPBM binding intensity (ln)” value does the source give for “ATTTTAAATTAAATTACACACTACGAATAATATATT [CACACA_site4016]” here?
A: 8.43 ± 0.42

Q: With “ATATTTCTGTCAAGCACACATAATATTAATATATGT [CACACA_site318]” as the sequence, how does the “gcPBM binding intensity (ln)” value read?
A: 8.61 ± 0.23

Q: How did the “gcPBM binding intensity (ln)” value turn out when “AATAAATTATATATCACACATATATATTTATATTTA [CACACA_site5964]” was run?
A: 8.13 ± 0.23

Q: With “ACATATAAAATATTCACACACAAGTTATAGTTCTCG [CACACA_site3626]” as the sequence, how does the “gcPBM binding intensity (ln)” value read?
A: 8.41 ± 0.41

Q: For “TTTCTTTTCTTCTCTATTTTTTTTTCACGGCATTAT [TGCATGCA_negctrl_site484]”, which “gcPBM binding intensity (ln)” value is on record?
A: 8.53 ± 0.47

Q: How did the “gcPBM binding intensity (ln)” value turn out when “AATATAAGAAAAATAACACACACATAAACATATATA [CACACA_site8899]” was run?
A: 8.9 ± 0.41

Q: With “ACATTAAAAAATTGTTTGCACTATATAAAATATTAA [GTGCAC_site9728]” as the sequence, how does the “gcPBM binding intensity (ln)” value read?
A: 8.54 ± 0.13
